Screen size: about 340,000 compounds; about 6,900 (2%) were called active. Rule as the data show it: active = inhibition above about 30%; inactive = below that, where a call was filed. The list shows a part of the results, in another mix than the full data. The source gives no active or inactive call for entries shown without one.
Each compound was assayed against D(2) dopamine receptor (Homo sapiens) (UniProt P14416) (assay: HTS Assay for Allosteric Antagonists of the Human D2 Dopamine Receptor: Primary Screen for Antagonists). Conditions: HEK293 TREx D2 cells, calcium flux, dopamine EC80; at 10 µM; stronger effect = higher value.
Sequence of UniProt P14416 (P14416 whole entry, looked up): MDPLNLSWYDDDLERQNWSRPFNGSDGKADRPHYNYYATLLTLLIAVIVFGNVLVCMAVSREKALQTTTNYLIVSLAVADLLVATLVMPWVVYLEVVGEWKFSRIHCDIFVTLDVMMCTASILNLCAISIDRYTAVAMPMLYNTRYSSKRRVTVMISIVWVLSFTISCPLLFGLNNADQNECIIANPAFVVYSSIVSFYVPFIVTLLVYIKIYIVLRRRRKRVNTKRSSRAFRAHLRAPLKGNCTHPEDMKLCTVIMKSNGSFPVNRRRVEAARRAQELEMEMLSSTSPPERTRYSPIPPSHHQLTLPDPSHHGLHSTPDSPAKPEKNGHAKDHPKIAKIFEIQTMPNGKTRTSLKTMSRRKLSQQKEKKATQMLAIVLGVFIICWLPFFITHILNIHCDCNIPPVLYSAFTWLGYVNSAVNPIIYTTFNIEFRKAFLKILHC
Procedure, shortened: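 Cells plated overnight at 30 C with tetracycline; no-wash calcium dye, 30–90 min RT; 10 s baseline; compound pinned; 180 s read; EC80 dopamine added; another 180 s read.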
Also: 0% is about no effect.

SMILES	inhibition
CCOc1ccc(C2=CC(c3cccc(Br)c3)n3c(nc4ccccc43)N2)cc1Cl (stereo not given)	13.7%
Cc1cc(NC(=O)c2cc(-c3cccc(Cl)c3)on2)n(-c2ccccc2)n1	-16.7%
COc1ccc(-c2noc(-c3ccc(NCc4cccnc4)c([N+](=O)[O-])c3)n2)cc1OC	-15.5%
Cc1c(C(=O)N(C)C)sc2c1c(=O)n(-c1ccc(Cl)cc1)c(=O)n2CC(=O)C(C)(C)C	9.09%
COc1ccc(C(=O)c2c(N)c(C(=O)Nc3cccc(OC)c3)c3ccccn23)cc1	-0.481%
Cc1ccc(NC(=O)Cn2nc(N3CCN(c4ccccc4)CC3)ccc2=O)cc1F	-1.98%
COc1ccc(-n2c(=O)c3sc4ccccc4c3n(Cc3ccccc3C)c2=O)cc1OC	23.4%
CCC1CCCCN1S(=O)(=O)c1cc2c3c(c1)CC(=O)N3CCC2 (stereo not given)	-13.4%
CCOC(=O)c1c(C)[nH]c(C)c1S(=O)(=O)N1CCC(C(=O)NCc2cccc(OC)c2)CC1	-2.02%
CCC(C(=O)O)n1ccc2cc(S(=O)(=O)N3CCCCC3)ccc21 (stereo not given)	15.7%
CCOc1ccc(NC(=O)Nc2ccc(N(C)C(C)=O)cc2)cc1	active: 31.6%
COC(=O)C1CCN(CCCOc2ccc(CN3CCN(c4ccc([N+](=O)[O-])cc4)CC3)cc2)CC1	active: 84.1%
CCCSc1ncc(Cl)c(C(=O)N(Cc2ccc(Cl)cc2)Cc2ccco2)n1	0.05%
CCc1ccccc1NC(=O)Cn1c(=O)ccc2cc(S(=O)(=O)N3CCCC3)ccc21	6.87%
CCOC(=O)N1CCc2c(sc3c2c(=O)n(-c2ccc(CC)cc2)c(=O)n3C)C1	3.2%
COc1ccc(OCc2ccc(-c3nc(C#N)c(N4CCCCC4)o3)o2)cc1	4.53%
Cc1ccccc1OCC(=O)N1CCC(c2nc3ccccc3s2)CC1	19.3%
COc1ccc(C2c3c(n(C)c4ccccc34)C(=O)N2CC(=O)Nc2cccc(Cl)c2C)cc1 (stereo not given)	-2.51%
Cc1cccc(N2CCN(C(=O)c3cnc(N4CCCC4)nc3C)CC2)c1C	11.7%
CCc1ccccc1Nc1sc(C(=O)c2cccc(OC)c2)c(N)c1S(=O)(=O)c1ccccc1	4.15%
Cn1c(=O)oc2cc(S(=O)(=O)NCCN3CCN(c4ccccc4)CC3)ccc21	active: 65.2%
CC1CCCN(C(=O)Cn2ncc3c([nH]c4ccccc43)c2=O)C1 (stereo not given)	12.7%
CCCCOc1ccc(C(=O)NCc2nnnn2-c2ccc(C)c(C)c2)cc1	7.8%
COC(=O)c1c(NC(=O)/C(C#N)=C/c2ccccc2)sc2c1C(C(=O)OC)CC2 (stereo not given)	-0.22%

SMILES	inhibition
CCOC(=O)c1c(C)oc2ncnc(Nc3cc(C)cc(C)c3)c12	-8.65%
O=C(NCCc1csc2nc(-c3ccccc3F)nn12)C(=O)Nc1cc(F)ccc1F	3.08%
O=C(NCCCN1CCN(c2cccc(Cl)c2)CC1)c1cnn(-c2ccc(F)cc2)c1-n1cccc1	6.45%
CSCSC1=C(C#N)C(c2ccc(Cl)cc2)C(C(C)=O)=C(C)N1 (stereo not given)	active: 31.6%
CCC1=C(c2ccc(C)cc2)S(=O)(=O)N=C1N1CCC(C(=O)NCc2ccc(N(C)C)cc2)CC1	-23.4%
CCN1C(=O)c2ccccc2Sc2ccc(NC(=O)Nc3cccc([N+](=O)[O-])c3C)cc21	16%
COc1ccc(CNC(=O)c2cnn3c(C)c(Cc4c(F)cccc4Cl)c(C)nc23)cc1	-6.12%
COc1ccc(N(C(=O)c2ccc(C(C)(C)C)cc2)S(=O)(=O)c2ccc(Cl)cc2)cc1	-8.39%
CCOc1ccc(-n2c(SCC(=O)Nc3ccc(CC)cc3)nc3c(oc4ccccc43)c2=O)cc1	-1.17%
CCOc1cc(C(=O)Nc2ccc3c(c2)n(C)c(=O)c(=O)n3C)cc(OCC)c1OCC	-4.14%
CCOC(=O)CCc1c(C)nc2cc(-c3cc(OC)cc(OC)c3)[nH]n2c1=O	8.59%
O=C(Nc1ccc(OC(F)(F)F)cc1)c1noc2c1CCCC2	-5.57%
O=C1C(=O)c2ccccc2C(O)=C1c1cccc([N+](=O)[O-])c1	active: 48.1%
COc1ccc2[nH]c3c(c2c1)CCn1c-3nc2sc(C(=O)Nc3ccccc3)c(C)c2c1=O	active: 39.2%
COC(=O)c1ccc(NC(=O)CC2C(=O)N(c3cccc(OC)c3)C(=O)N2C(C)C)cc1 (stereo not given)	-11.8%
COc1cc(NC(=O)c2cc(-c3cccc(OC)c3)n[nH]2)cc(OC)c1	10.4%
COc1cccc(C(=O)NC2CC3CCC(C2)N3Cc2ccccc2)c1 (stereo not given)	active: 95.5%
COc1cc(NC(=O)c2nnn(CC(=O)Nc3cc(C)ccc3C)c2N)cc(OC)c1	1.37%
CC(C)(C)OC(=O)N1CCC(c2c(C(=O)N3CCN(C(=O)c4ccco4)CC3)cnn2-c2ccc(F)cc2F)CC1	-6.91%
CCCOC(=O)c1c(NC(=O)c2cc3ccccc3c(=O)o2)sc2c1CCC(C)C2 (stereo not given)	-13%
CCOc1ccc(-n2nc3ccc(NC(=O)Cc4ccccc4)cc3n2)cc1	-1.07%
CCOC(=O)c1cnc2c(Cl)cc(Cl)cc2c1Nc1ccccc1OC	10.7%
COc1ccc(-c2cn3c(C)c(C(=O)Nc4cc(C)cc(C)c4)sc3n2)cc1	4.6%
COC(=O)c1ccc(Cn2nnc3c(=O)[nH]c(C4CCCN(S(=O)(=O)c5ccccc5Cl)C4)nc32)cc1 (stereo not given)	10.7%

SMILES	inhibition
Cc1ccc(-c2nnc3c4ccccc4c(C)nn23)cc1NC(=O)c1ccccc1	7.48%
CCc1cccc(NC(=O)CN(C)S(=O)(=O)c2ccc3[nH]c4c(c3c2)CCCC4)c1	1.56%
CCc1ccccc1-n1c(N)c(C(=O)OC)c2nc3ccccc3nc21	-1.22%
Cc1cc(-c2ccc(C)c(S(=O)(=O)N3CCOc4ccc(Cl)cc43)c2)on1	-3.49%
COc1ccc(CCNc2ncnc3c2nnn3C)cc1	-18.4%
COC(=O)c1sc2cccc(F)c2c1S(=O)(=O)N1CCN(c2cccc(C)c2)C(C)C1 (stereo not given)	12.9%
CCOC(=O)N1CCc2c(sc(N)c2C#N)C1	active: 58.2%
CC1CCc2c(sc(NC(=O)CCCOc3ccccc3)c2C(N)=O)C1 (stereo not given)	-6.13%
COc1n[nH]c(C(=O)Nc2cc(Cl)ccc2Cl)c1[N+](=O)[O-]	active: 32.1%
O=c1cc(C(F)(F)F)oc2c1ccc1ccccc12	active: 33.7%
COc1ccc(-c2cc(C(=O)Oc3ccc(Br)cc3)c3ccccc3n2)cc1	6.7%
Cc1ccc(NC(=O)c2oc3ccccc3c2NC(=O)C2CCCCC2)cc1	11.2%
COc1cc(OC)c(NC(=O)CCc2nc(C3=CCN(Cc4cccc(Cl)c4)CC3)no2)cc1Cl	4.03%
CCc1ccc(-n2c(=O)c3sc4ccccc4c3n(CC(=O)NC3CCCC3)c2=O)cc1	-1.63%
Cc1nc2nc(CNC(=O)OC(C)(C)C)nn2c(C)c1CCC(=O)NCc1ccccc1Cl	-6.4%
COc1ccc(CCNC(=O)CCc2c(C)c3ccc(O)c(C)c3oc2=O)cc1	-5.29%
COc1cccc(C2C(=O)N(C3CCCCC3)CC(=O)N2CCc2ccc(OC)c(OC)c2)c1 (stereo not given)	14.3%
Nc1nc(N)c(S(=O)(=O)c2ccccc2)c(Nc2ccccc2)n1	4.52%
CCc1cccc(C)c1Nc1c(-c2cccs2)nc2ncccn12	8.42%
O=S(=O)(Nc1ccc(OC(F)(F)F)cc1)c1ccc(N2CCCCS2(=O)=O)cc1	6.56%
Cc1cc(C)c(S(=O)(=O)NCC(c2ccco2)S(=O)(=O)c2ccccc2)c(C)c1 (stereo not given)	-7.84%
Cc1cc(C)c(NC(=O)CCN2CCCCC2)c(C)c1	21.3%
O=C(Cn1c(=O)c2ccccc2n(CC(=O)Nc2ccccc2F)c1=O)NCCc1ccccc1	-14.8%
CCC(OC(=O)c1ccco1)C(=O)NCc1ccc(C)cc1 (stereo not given)	active: 66%

SMILES	inhibition
COc1ccc(NC(=O)COCc2cc(-c3ccco3)on2)cc1Cl	0.919%
O=C(Nc1ccc(F)c(F)c1)c1ccc(=O)n(Cc2ccc(F)cc2)c1	-16.2%
CC(C)c1ccc(S(=O)(=O)NCc2nc3cccnc3n2Cc2ccc(F)cc2)cc1	0.904%
Cc1ccc(NC(=O)C2CCC(CNS(=O)(=O)c3cccs3)CC2)cc1C (stereo not given)	9.45%
CCOC(=O)C1CCN(C(=O)c2ccc(C)c(NC(=O)c3nsc4ccccc34)c2)CC1	2.19%
CCC(=O)N1c2ccc(S(=O)(=O)CCC(=O)NCc3ccc(OC)cc3)cc2CC1C (stereo not given)	-8.7%
Cc1cccc(OC(=O)c2snnc2C)c1C	8.68%
CCCN(C(=O)c1cc2c(s1)-c1ccccc1OC2)c1ccc(C(C)C)cc1	-10.5%
CCc1ccc(Nc2nc(-c3cc4cccc(OC)c4oc3=O)c(CC)s2)cc1	8.09%
CCOC(=O)c1ccc(NC(=O)Nc2cc3c(cc2N2CCCCC2)n(CC)c(=O)n3CC)cc1	0.695%
Cc1ccc(OCCCN(C)C)c(Br)c1	active: 37.4%
CCOC(=O)Cc1ccc(NC(=O)Nc2nnc(N3CCCCC3C)s2)cc1 (stereo not given)	-0.38%
COC(=O)c1ccc(NC(=O)c2c(-c3ccccc3)c(-c3ccccc3)nn(C)c2=O)cc1	0.0357%
O=C(Nc1ccc2c(c1)CCCN2C(=O)c1cccs1)c1ccccc1C(F)(F)F	12.2%
Cc1cc2c(cc1S(=O)(=O)CCC(=O)N1CCN(c3ccccc3)CC1)OCC(=O)N2	19.6%
CCS(=O)(=O)N1CC(=O)N(c2cc(Cl)ccc2C)C(C)(C(=O)NC2CCCCCC2)C1 (stereo not given)	-1.13%
CCCCCOC(=O)CSc1nc2sc3c(c2c(=O)n1Cc1ccccc1)CC(C)(CC)OC3 (stereo not given)	-6.82%
COc1ccc(CNC(=O)CCc2c(C)nn(-c3ccc(N4CCCC4)nn3)c2C)cc1	10.9%
COc1ccc(-c2nc3scc(CCNS(=O)(=O)c4cccs4)n3n2)cc1	21.7%
COc1cccc(C(=O)NC2=NC(c3ccccc3F)CC(=O)N2)c1 (stereo not given)	-12.3%
Cc1ccc(-n2c(=O)c3c4c(sc3n(CC(=O)C(C)(C)C)c2=O)CCCCC4)cc1C	-16.5%
COc1ccc(Br)cc1CNCc1c(C(=O)O)c(C)n(Cc2ccccc2C)c1C	-12.3%
Cc1nc2cccnc2n1-c1cccc(C(=O)NCc2cccc(Cl)c2)c1	-1.46%

Source: PubChem BioAssay AID485344 (National Center for Advancing Translational Sciences (NCATS), 2010)
